Results from paper PMC4336329 (PLoS ONE, 2015).
Among all 310,000 compounds or so, about 2,200 (0.71%) showed an effect of 50% or more. The effect is printed as a negative number. The list shows a part of the results.

The compounds below were run against human ether-à-go-go-related gene (hERG) potassium channel (human, UniProt Q12809) (assay: primary screen, population patch clamp on CHO cells stably expressing hERG).
human ether-à-go-go-related gene (hERG) potassium channel, sequence (Q12809 whole entry, looked up): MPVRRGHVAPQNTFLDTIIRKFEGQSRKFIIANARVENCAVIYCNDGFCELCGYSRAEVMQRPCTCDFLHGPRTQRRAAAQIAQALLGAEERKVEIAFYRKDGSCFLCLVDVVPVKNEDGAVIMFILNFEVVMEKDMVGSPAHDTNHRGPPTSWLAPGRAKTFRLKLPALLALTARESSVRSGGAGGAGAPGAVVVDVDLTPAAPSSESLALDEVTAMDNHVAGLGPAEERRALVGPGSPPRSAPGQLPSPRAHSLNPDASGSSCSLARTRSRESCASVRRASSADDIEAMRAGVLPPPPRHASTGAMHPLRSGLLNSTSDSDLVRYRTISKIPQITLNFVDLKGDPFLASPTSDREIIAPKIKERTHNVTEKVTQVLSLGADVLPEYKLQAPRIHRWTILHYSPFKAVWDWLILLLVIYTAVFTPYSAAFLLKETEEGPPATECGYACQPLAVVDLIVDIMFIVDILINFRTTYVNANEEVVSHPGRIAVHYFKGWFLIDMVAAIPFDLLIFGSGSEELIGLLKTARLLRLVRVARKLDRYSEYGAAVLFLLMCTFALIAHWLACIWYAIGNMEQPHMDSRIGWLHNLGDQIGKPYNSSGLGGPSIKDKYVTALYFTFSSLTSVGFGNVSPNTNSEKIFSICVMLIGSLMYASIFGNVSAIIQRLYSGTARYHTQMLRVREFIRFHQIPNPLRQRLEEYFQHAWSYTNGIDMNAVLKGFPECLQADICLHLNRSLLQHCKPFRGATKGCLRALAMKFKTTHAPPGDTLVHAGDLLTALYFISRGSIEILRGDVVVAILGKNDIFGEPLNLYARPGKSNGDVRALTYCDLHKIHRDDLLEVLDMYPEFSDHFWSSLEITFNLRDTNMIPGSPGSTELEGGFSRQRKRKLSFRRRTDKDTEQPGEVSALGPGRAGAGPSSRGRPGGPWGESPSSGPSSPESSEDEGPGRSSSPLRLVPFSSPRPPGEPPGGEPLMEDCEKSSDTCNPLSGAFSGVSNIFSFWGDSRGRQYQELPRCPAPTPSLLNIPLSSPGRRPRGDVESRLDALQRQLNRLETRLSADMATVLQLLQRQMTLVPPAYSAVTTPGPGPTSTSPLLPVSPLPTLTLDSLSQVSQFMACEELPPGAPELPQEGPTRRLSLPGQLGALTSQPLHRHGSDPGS

Compared with `Cc1cc(NC(=O)CCC(=O)N(CCC(C)C)C(C(=O)NC2CCCC2)c2ccccc2C)no1` (centres unmarked), `CCOC(=O)CCNC(=O)N1CCCC(C(=O)c2cccc(Cl)c2)C1` (centres unmarked) is higher in “hERG current change (%, negative = inhibition) at 1uM” value: -3.2% for the first, 4.58% for the second.

Compared with `CC1=CC(C)(C(Cl)Cl)C(C)=CC1=O` (centres unmarked), `Cc1cc(C)c(NC(=O)NC(=O)C(Cl)(Cl)Cl)c(C)c1` is higher in “hERG current change (%, negative = inhibition) at 1uM” value: 11.8% for the first, 20.7% for the second.

First: COc1ccc2cc3cc(C(=O)N4CC(C)CC(C)C4)oc3nc2c1 (centres unmarked)
Second: COc1ccc(C(=O)Nc2ccnn2C2CCN(C(=O)c3cccnc3)CC2)cc1
The “hERG current change (%, negative = inhibition) at 1uM” value of the first is lower: 14.5% for the first, 16.6% for the second.

Going from `Cc1ccc2cc(CN(Cc3nnnn3C3CCCCC3)CC3CCCO3)c(=O)[nH]c2c1` (centres unmarked) to `CCN1CCN(CCCNC(=O)C2CCCN(c3nc4c(C)cc(C)cc4s3)C2)CC1` (centres unmarked), the “hERG current change (%, negative = inhibition) at 1uM” value falls from 4.57% to 1.51%.

First: O=C(NC(=S)Nc1ccccc1[N+](=O)[O-])c1ccccc1
Second: Cc1cccc(C(=O)NNC(=O)Nc2ccccc2)c1
The “hERG current change (%, negative = inhibition) at 1uM” value of the first is higher: 8.5% for the first, 7.85% for the second.

Compared with `COCCNC(=O)c1sc2nc(-c3ccccc3)cn2c1C`, `COC(=O)Cc1csc(Nc2ccccc2Cl)n1` is higher in “hERG current change (%, negative = inhibition) at 1uM” value: 2.35% for the first, 9.24% for the second.

First: COc1ccc(Cc2nnc(NC(=O)CS(=O)(=O)c3ccc(C)cc3)s2)cc1OC
Second: COc1cc(-c2cc(C(=O)NCc3ccc(S(N)(=O)=O)cc3)c3ccccc3n2)cc(OC)c1OC
The “hERG current change (%, negative = inhibition) at 1uM” value of the first is higher: 15.8% for the first, 14.7% for the second.

Going from `CCS(=O)(=O)c1ncc(Cl)c(C(=O)Nc2ccc(S(=O)(=O)N(C)c3ccccc3)cc2)n1` to `COc1cccc(/C=N/NC(=O)CN(C)S(=O)(=O)c2ccccc2)c1OC`, the “hERG current change (%, negative = inhibition) at 1uM” value falls from 11.9% to 6.7%.

Going from `CCNc1cc(N2CCN(S(=O)(=O)c3ccc4c(c3)CCCC4)CC2)ccc1[N+](=O)[O-]` to `CC(=O)c1ccc(N2CCN(S(=O)(=O)c3cccc(S(=O)(=O)N4CCOCC4)c3)CC2)cc1`, the “hERG current change (%, negative = inhibition) at 1uM” value rises from -8.75% to 1.36%.

First: O=C(CSC1=NCCS1)Nc1nc2c(s1)CCCC2
Second: CC(=O)c1ccc(Nc2c3c(nc4ccccc24)CCCC3)cc1
The “hERG current change (%, negative = inhibition) at 1uM” value of the first is higher: -3.89% for the first, -7.14% for the second.

First: O=[N+]([O-])c1cc([N+](=O)[O-])c2cc3ccccc3nc2c1
Second: CCSc1nc2ccccc2c(=O)n1Cc1ccc(F)cc1
The “hERG current change (%, negative = inhibition) at 1uM” value of the first is higher: 15.6% for the first, 13.1% for the second.

Compared with `CCOC(=O)c1ccc(OC(=O)CCCCCN=C(N)N)cc1.CS(=O)(=O)O`, `CCOC(=O)c1ccccc1NC(=O)COC(=O)c1ccc(C)c(S(=O)(=O)N2CCOCC2)c1` is lower in “hERG current change (%, negative = inhibition) at 1uM” value: 1.72% for the first, 1.11% for the second.

Compared with `Nc1ccccc1-c1nnc(SCc2ccccc2F)[nH]c1=O`, `NCCSc1c(-c2ccc(F)cc2)[nH]c2ccccc12` is lower in “hERG current change (%, negative = inhibition) at 1uM” value: 12.1% for the first, 2.88% for the second.

Compared with `O=C(N/N=C/c1cccc(C(F)(F)F)c1)c1ccc(O)cc1`, `O=C(Nc1cc(C(F)(F)F)ccc1Cl)c1ccncc1` is lower in “hERG current change (%, negative = inhibition) at 1uM” value: 10.3% for the first, 6.79% for the second.

First: COC(=O)c1cc2occc2n1Cc1cccc(C)c1
Second: Cc1cccc(OCc2nnc(SC(C)C(=O)O)n2Cc2ccccc2)c1 (centres unmarked)
The “hERG current change (%, negative = inhibition) at 1uM” value of the first is lower: 7.47% for the first, 11.4% for the second.

Going from `CCc1ccc(C(=O)N2CCN(c3ccc(NC(=O)c4ccco4)cc3)CC2)cc1` to `CC(=O)Nc1ccc(NC(=O)c2sc3nc4c(c(-c5ccc(C)cc5)c3c2N)CCC4)cc1`, the “hERG current change (%, negative = inhibition) at 1uM” value rises from -0.252% to 17.1%.

First: Cc1ccc(CNC(=O)CCC2CCCN(Cc3c(C)nn(C(C)C)c3C)C2)o1 (centres unmarked)
Second: Cc1ccc(C(=O)NCc2ccco2)o1
The “hERG current change (%, negative = inhibition) at 1uM” value of the first is lower: -7.5% for the first, 21.2% for the second.

Going from `COc1ccc(CCNC(=O)COC(=O)Cn2cnc3ccccc32)cc1OC` to `CCOC(=O)/C(C#N)=C/c1ccc(OCC(=O)Nc2cc(C)ccc2C)c(OC)c1`, the “hERG current change (%, negative = inhibition) at 1uM” value falls from 20% to 13.7%.

Going from `CCCN1C(=O)/C(=C2/C=Cc3ccccc3N2CC)SC1=S` to `O=C(CCN1C(=O)/C(=C/c2ccccc2Cl)SC1=S)Nc1ccccc1C(=O)O`, the “hERG current change (%, negative = inhibition) at 1uM” value rises from 10.7% to 14.8%.

First: COc1ccc(C2/C=C\CN(C(=O)OCc3ccccc3)CC(=O)N2Cc2ccc(F)cc2)cc1 (centres unmarked)
Second: COc1ccc(-n2c(=S)[nH]c3cc(C(=O)NCc4ccc(F)cc4)ccc3c2=O)c(OC)c1
The “hERG current change (%, negative = inhibition) at 1uM” value of the first is lower: 9.32% for the first, 13.1% for the second.

First: COc1ccc(S(=O)(=O)N2CCc3ccccc32)cc1C(=O)NCCc1ccccn1
Second: O=C(Nc1ccccc1)OCc1ccccn1
The “hERG current change (%, negative = inhibition) at 1uM” value of the first is higher: 10.1% for the first, 6.46% for the second.

First: Cc1nnc2n1N=C(c1ccc(F)cc1F)CS2
Second: O=S(=O)(Nc1cccc(-c2ccc3nncn3n2)c1)c1cccc(F)c1
The “hERG current change (%, negative = inhibition) at 1uM” value of the first is higher: 7.35% for the first, -17.3% for the second.

Compared with `CCCCc1cc(=O)oc2cc(OC(C)C(=O)NCC3CCC(C(=O)O)CC3)c(Cl)cc12` (centres unmarked), `CCCCCC(=O)O[C@]1(C(C)=O)CC[C@H]2[C@@H]3CCC4=CC(=O)CC[C@]4(C)[C@H]3CC[C@@]21C` is higher in “hERG current change (%, negative = inhibition) at 1uM” value: 15.6% for the first, 16% for the second.

First: O=C(CSc1cccc2cccnc12)Nc1cc(C(=O)O)cc(C(=O)O)c1
Second: Cc1ccc(NC(=O)CSc2nnc(-c3cnccn3)n2Cc2ccco2)cc1C
The “hERG current change (%, negative = inhibition) at 1uM” value of the first is higher: 16.2% for the first, 0.115% for the second.

First: COc1ccc(CNC(=S)Nc2cc(C)cc(C)c2)cc1
Second: COc1ccc(NC(=O)CN(C)CC(=O)Nc2ccc(Cl)cc2F)cc1
The “hERG current change (%, negative = inhibition) at 1uM” value of the first is higher: 7.31% for the first, 0.116% for the second.

Compared with `Cc1ccc(C)c(S(=O)(=O)NCc2cccnc2)c1`, `Cc1ccc(CNS(=O)(=O)c2ccc3c(c2)OCCO3)cc1` is lower in “hERG current change (%, negative = inhibition) at 1uM” value: 10.3% for the first, 1.33% for the second.

Compared with `COC(=O)c1[nH]c2ccccc2c1NC(=O)CN1CCN(Cc2ccc3c(c2)OCO3)CC1`, `O=C(CSc1nnnn1-c1ccc2c(c1)OCO2)NCc1ccccc1` is higher in “hERG current change (%, negative = inhibition) at 1uM” value: -70.3% for the first, 9.19% for the second.

Compared with `CN1C(=O)Cc2cc(S(=O)(=O)NCc3c(F)cccc3Cl)ccc21`, `CC(C)CNC(=O)C1CCCN1S(=O)(=O)c1ccc(Cl)cc1` (centres unmarked) is lower in “hERG current change (%, negative = inhibition) at 1uM” value: 18.4% for the first, 10.6% for the second.

Compared with `CN1CCN(NC(=O)CN2C(=O)/C(=C/c3ccccc3Cl)SC2=S)CC1`, `CCOC(=O)c1c(NC(=O)Cn2nnc(-c3ccccc3Cl)n2)sc(C)c1C` is higher in “hERG current change (%, negative = inhibition) at 1uM” value: -3.93% for the first, -3.72% for the second.

Going from `O=C1C=C(c2ccccc2)C(O)(c2ccccc2)C1` (centres unmarked) to `C[n+]1c(-c2ccccc2)cc(-c2ccc(Cl)cc2)cc1-c1ccccc1.[O-][Cl+3]([O-])([O-])[O-]`, the “hERG current change (%, negative = inhibition) at 1uM” value falls from 13.1% to -35.3%.

Going from `C/C(=N\OC(=O)Nc1ccccc1)c1cnn(-c2cc(C(F)(F)F)cc(C)n2)c1C` to `COc1ccc(-c2csc(-c3cccnc3)n2)cc1C`, the “hERG current change (%, negative = inhibition) at 1uM” value falls from 10.8% to 8.38%.

Going from `Cc1oc(C)c2c(=O)ccc3c(c12)OC(N)=C(C#N)C3c1ccccc1` (centres unmarked) to `COC(=O)c1ccc(CSc2nc3ccccc3c(=O)n2-c2cccc(OC)c2)o1`, the “hERG current change (%, negative = inhibition) at 1uM” value falls from 11% to 6.56%.

Going from `O=C(NCc1cccs1)c1ccc(CS(=O)Cc2cccc(Cl)c2)o1` (centres unmarked) to `Cc1ccc(CNC(=O)CS(=O)Cc2nc(-c3cccs3)oc2C)cc1` (centres unmarked), the “hERG current change (%, negative = inhibition) at 1uM” value falls from 12.6% to -5.04%.

Going from `Cc1c(S(=O)(=O)N2CCC(C)CC2)c(=O)n(C)c(=O)n1C` to `CC1CN(S(=O)(=O)c2ccc(Cl)c(C(F)(F)F)c2)CC(C)O1` (centres unmarked), the “hERG current change (%, negative = inhibition) at 1uM” value rises from 4.24% to 7.77%.

First: O=C1/C(=C/N(C(=O)c2ccco2)c2ccc(Br)cc2)Sc2ccccc21
Second: Cc1ccc(OCc2nnc(SCC(=O)N3c4ccccc4Sc4ccc(Cl)cc43)o2)cc1
The “hERG current change (%, negative = inhibition) at 1uM” value of the first is higher: 3.48% for the first, -0.619% for the second.

Going from `C=CCn1c(-c2cccs2)nc2ccccc21` to `O=C(N=Nc1c(O)[nH]c2ccccc12)c1cccs1`, the “hERG current change (%, negative = inhibition) at 1uM” value rises from 7.05% to 14.7%.

Compared with `COc1ccccc1CN1C(=O)[C@@H]2C(CC(N)=O)NC3(C(=O)Nc4c3ccc(Cl)c4C)[C@@H]2C1=O` (some centres unmarked), `COc1ccc(N2C(=NC(=O)CCCc3ccccc3)SC3CS(=O)(=O)CC32)cc1` (centres unmarked) is higher in “hERG current change (%, negative = inhibition) at 1uM” value: -1.13% for the first, 13% for the second.

Compared with `O=C(/C=C/c1ccccc1)N(Cc1cccs1)C1CCS(=O)(=O)C1` (centres unmarked), `O=C(O)C1CC(O)CN1C(=S)Nc1ccccc1` (centres unmarked) is higher in “hERG current change (%, negative = inhibition) at 1uM” value: 1.96% for the first, 11.7% for the second.

Going from `COc1cccc(C(O)CC(N)=O)c1` (centres unmarked) to `CN(Cc1nccs1)C(=O)c1cc(COc2cccc3cnccc23)on1`, the “hERG current change (%, negative = inhibition) at 1uM” value falls from 15.9% to 11.2%.

Going from `C=C(C)C1CC=C(C)/C(=N/NC(=O)c2ccoc2C)C1` (centres unmarked) to `Cc1cccc(CN2CCC(N3CC(C)OC(C)C3)CC2)c1.O=C(O)C(=O)O` (centres unmarked), the “hERG current change (%, negative = inhibition) at 1uM” value rises from 9.13% to 19.7%.

First: CC(Cc1ccc(O)c(O)c1)C(C)Cc1ccc(O)c(O)c1 (centres unmarked)
Second: CCN(CC(=O)Nc1c(F)cccc1F)C(=O)c1ccc2c(c1)OCCO2
The “hERG current change (%, negative = inhibition) at 1uM” value of the first is higher: 13.9% for the first, 4.93% for the second.

First: Cc1ccc2c(c1)nc(NCCO)n2C.Cl
Second: CCn1c(SCC(=O)NC(C)(C)C)nnc1-c1ccccn1
The “hERG current change (%, negative = inhibition) at 1uM” value of the first is lower: 7.82% for the first, 10.9% for the second.

Compared with `CC(C)CCN1CC(=O)N2[C@@H](Cc3c([nH]c4ccccc34)C2(C)C)C1=O`, `CN1Cc2cc(C(=O)c3cc(Cl)cc(CSc4ncccn4)c3O)cnc2NC1=O` is lower in “hERG current change (%, negative = inhibition) at 1uM” value: 8.51% for the first, 0.725% for the second.
